Data published in PubChem BioAssay AID493208 (National Center for Advancing Translational Sciences (NCATS), 2011).
Screen size: about 44,000 compounds; about 340 (0.77%) were called active. Roughly 5% stayed inconclusive and do not appear here. The call rests on the fitted dose curve; in most records, active means well fitted inhibition curve with a large enough effect; inconclusive means small, poorly fitted or top-dose-only effect; inactive means flat fitted curve, though single readings scatter. The list shows a part of the results.

Assay: Acumen qHTS Assay for Inhibitors of the mTORC1 Signaling Pathway in MEF (Tsc2-/-, p53-/-) Cells: Sytravon;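 further: plate controls were DMSO for no effect and rapamycin for full effect; nearly all actives have a fitted effect of over 50% in size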
Details: phospho-rpS6 immunofluorescence/PI, 24 h; series mostly up to 38.3 µM; activity change, negative = inhibition: at the top concentration
Procedure, shortened: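 Readout is phospho-S6 Alexa 488 signal normalized to PI per well, reported as % active cells with thresholds set from rapamycin (7.5 nM) and DMSO controls. Cells: Tsc2-/-, p53-/- MEFs, 24 hrs compound at 37 C; PI cell number serves as viability.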

Activity change, negative = inhibition, inactive:
CCc1ccc(NC(=O)c2cc3c(=O)n(Cc4cccnc4)ccc3nc2C)cc1 -1.59%
CC(C)c1nn2c(=O)cc(COC(=O)CNC(=O)c3ccccc3)nc2s1 -1.4%
COc1ccc(Nc2nc(N)nc(CSc3nc4cc(OC)ccc4s3)n2)cc1 -27.7%
COc1ccc(NC(=O)Cc2csc(COc3cccc(C)c3)n2)c(OC)c1 -0.0768%
COc1ccc(-c2noc(CCC(=O)NCc3ccc(OC)cc3OC)n2)cc1 1.23%
COc1ccc(OCC(=O)NCCS(=O)(=O)N2CCN(c3cccc(Cl)c3)CC2)cc1 -7.58%
CCn1cc(C(=O)N(C)Cc2ccccc2)c(=O)c2cc(S(=O)(=O)N3CCCCCC3)ccc21 7.56%
Cc1cc(C)cc(OCC(=O)N(Cc2ccc(C)o2)C2CCS(=O)(=O)C2)c1 (stereo unspecified) -6.21%
CCOC(=O)c1c(C)sc(-c2c(-c3ccc(OC)c(F)c3)[nH]c3c2c(=O)[nH]c(=O)n3C)c1O 0.357%
CC(C)Oc1ccc(CNC(=O)c2ccc3nc(Cc4ccccc4)oc3c2)cc1 -7.96%
CCC(CC)C(=O)Nc1ccc2nc(SCC(=O)N3c4ccccc4CC3C)sc2c1 (stereo unspecified) 0.257%
COCCNC(=O)c1cc2c(Cl)nc3ccc(C)cc3c2s1 1.15%
Cc1ccc(CN(Cc2ccco2)C(=O)c2oc3c(C)c(C)ccc3c2C)cc1 -7.78%
COc1cccc(N(CC(=O)N2CCC(C)CC2)S(=O)(=O)c2ccc(C)cc2)c1 7.39%
COc1ccc(Cl)cc1NC(=O)c1c(NCc2ccc(C)o2)sc2c1CCCC2 -9.87%
COc1cc(OC)c(Nc2ncnc3onc(-c4cccc(Cl)c4)c23)cc1Cl 3.18%
CCC(C)NC(=O)CSc1nc2cc3c(cc2c(=O)n1CCCC(=O)NCc1ccc2c(c1)OCO2)OCO3 (stereo unspecified) 0.475%
Clc1ccccc1Cc1cn2cc(-c3ccccc3)nc2s1 -14.4%
CCc1ccc(NC(=O)CSc2nnc(-c3cc4occc4n3C)n2-c2ccccc2C)cc1 -15.4%
Cn1c(=O)c2c(-c3ccccc3Br)n(CCc3ccccc3)cc2n(C)c1=O -4.6%
CCCCOc1ccc(C2=NC(c3ccccc3)=Nc3ccc(OC)cc3N2)cc1 0.717%
C=CCc1c(C)nc2nc(SCC(=O)Nc3ccc(OCC)cc3)nn2c1C -11.2%
COc1ccccc1CNC(=O)Cn1nc(C)c2nn(-c3ccc(Cl)cc3)c(C)c2c1=O -0.115%
CC(C)c1ccc(Nc2ncnc3c2c(-c2ccccc2)cn3-c2ccccc2)cc1 3.98%
Cc1cc(C)cc(NC(=O)C2(c3cccs3)CCOCC2)c1 -10.1%
COc1ccccc1NC(=O)CSc1nnc2c3ccccc3n(C)c2n1 -10.4%
Clc1cccc(-n2ncc3c(N4CCN(Cc5ccccc5)CC4)ncnc32)c1 10.9%
COc1cccc(CNC(=O)Cn2ccc3cc(S(=O)(=O)N4CCC(C)CC4)ccc32)c1 -6.4%
Cc1ccc(-c2nc3cccnc3s2)cc1NC(=O)Cc1ccccc1 -3.92%
COc1ccc(NC(=O)Cn2ccn(-c3ccccc3)c(=O)c2=O)cc1 -3.24%
COc1ccccc1Nc1ncnc2c1nc1n2CCCC1 -0.208%
Cc1ccc(-n2nc(C)c3c(C(=O)Nc4ccc(Br)c(C)c4)cc(C)nc32)cc1 8.21%
COC(=O)C1=C(C)NC(=O)C1(NC(=O)c1ccccc1C)C(F)(F)F (stereo unspecified) 0.753%
COCCNC(=O)CSc1nc(-c2ccc(C)cc2)nc2c1c(=O)n(C)c(=O)n2C 3.39%
COc1ccc(CCC(=O)NCc2ccc3c(c2)CCN3C(=O)c2ccc(C)cc2)cc1 2.05%
COc1cccc(-c2nc(SCC(=O)N3CCc4ccccc43)c3c(=O)n(C)c(=O)n(C)c3n2)c1 -6.93%
CCOC(=O)c1c(-c2ccccc2)oc2ccc(NS(=O)(=O)c3ccc(C(C)C)cc3)cc12 1.88%
Cc1cccc(OCC(=O)Nc2ccc3nc(Nc4cccc(Cl)c4)cc(C)c3c2)c1 -11.7%
COc1ccccc1NC(=O)c1c(NC(=O)c2ccccc2Cl)sc2c1CCC2 -0.0762%
CCOc1ccc(CNC(=O)CCCn2c(=O)c3cccn3c3ccc(F)cc32)cc1 7.78%
CC(=O)N1CCc2c(sc3c2c(=O)n(Cc2ccccc2)c(=O)n3CC(=O)Nc2ccc(C)c(F)c2)C1 -1.22%
Cn1c(=O)c(=O)n(C)c2cc(NC(=O)c3ccccc3Br)ccc21 0.236%
COc1ccc(CN2C(=O)C(NC(=O)c3ccccc3OC)(C(F)(F)F)N=C2c2ccccc2)cc1 (stereo unspecified) -10.1%
CCc1ccc(NC(=O)CCn2cnc3ccccc3c2=O)cc1 -7.84%
CCOC(=O)c1ccc(NC(=O)c2nn(C)c3c2COc2ccccc2-3)cc1 1.49%
Cc1ccc(S(=O)(=O)c2nnn3c2nc(NCc2ccccc2Cl)c2sccc23)cc1 -2.48%
CC(C)c1ccc(OCc2cc(=O)n3c(-c4ccccc4)csc3n2)cc1 -10.6%
COc1ccc(NC(=O)CCCN2C(=O)COc3ccc(C)cc32)cc1OC 0.164%
COc1cc(-c2cc(OC)c3c(C)oc(C)c3c(=O)c2)ccc1OC(=O)c1cccc(Cl)c1 -3.39%
CCOC(=O)c1c(NC(=O)CSc2cn(CCNC(=O)c3ccccc3F)c3ccccc23)sc2c1CCCC2 -3.66%
O=C(Cn1c(=O)n(-c2ccc(Cl)cc2)c(=O)c2c3c(sc21)CCC3)c1ccccc1 -0.384%
CC(C)(C)OC(=O)N1CCC(c2c(C(=O)N3CCN(C(=O)c4ccco4)CC3)cnn2-c2ccccc2Cl)CC1 3.4%
COCCCNC(=O)c1ccc2c(c1)NC(=O)C(C(C)C)N2 (stereo unspecified) 9.68%
CCc1ccc(S(=O)(=O)c2nnn3c2nc(NCCNC(C)=O)c2cc(Cl)ccc23)cc1 1.6%
CC(C)(C)NC(=O)c1oc2ccccc2c1NC(=O)c1ccc(F)cc1 2.87%
COc1ccc(CCN2C(=O)CN(C3CCC(C)CC3)C(=O)C2c2ccc(OC(C)C)c(OC)c2)cc1OC (stereo unspecified) -22.9%
Cc1ccccc1C(=O)c1cccn1CC(=O)NCc1cccc(Cl)c1 -0.518%
CCc1nn(CCCC(=O)NC(C)c2ccccc2)c(=O)c2cc3occc3n12 (stereo unspecified) 0.232%
Cc1ccc(Cn2cc(CCC(=O)NCc3ccc(OC(C)C)cc3)c3ccccc32)cc1 0%
CCCCNC(=O)C(CC)Sc1nc2ccccc2c(=O)n1CCc1ccc(OC)c(OC)c1 (stereo unspecified) -7.76%
COCCN(CCOC)c1ncnc2c1c(-c1ccccc1)cn2-c1ccc(C)c(Cl)c1 -5.92%
